# Test results reported in the supplement of paper PMC4604168 (melanoma cell lines).
# Some of the results follow. Most values come without repeats; read them as rough.
# System: IPC-298
# Assay: cell count relative to DMSO control; melanoma cells; higher = more viable cells
# Conditions: library dose: low library concentration; 72 h
# 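Also: cell number obtained by counting DAPI-stained nuclei in high-throughput microscope images with image analysis software, screen run in 1,536-well plates.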
row,SMILES,cell count [%]
1,"NC(=O)c1ccc(N(C(N)=O)c2c(F)cccc2F)nc1-c1ccc(F)cc1F + Cn1cncc1[C@@](N)(c1ccc(Cl)cc1)c1ccc2c(c1)c(-c1cccc(Cl)c1)cc(=O)n2C [tipifarnib] (first compound 0.4 µM, partner dose 0.01 µM)",97.7
2,"NC(=O)c1ccc(N(C(N)=O)c2c(F)cccc2F)nc1-c1ccc(F)cc1F + CO[C@@H]1[C@H](N(C)C(=O)c2ccccc2)C[C@H]2O[C@]1(C)n1c3ccccc3c3c4c(c5c6ccccc6n2c5c31)C(=O)NC4 [Midostaurin] (first compound 0.4 µM, partner dose 0.08 µM)",95
3,"NC(=O)c1ccc(N(C(N)=O)c2c(F)cccc2F)nc1-c1ccc(F)cc1F + CN(NC(=O)CC(=O)NN(C)C(=S)c1ccccc1)C(=S)c1ccccc1 [STA4783] (first compound 0.4 µM, partner dose 0.006 µM)",99.7
4,"Cc1ccc(NC(=O)c2cccc(N(C)C)c2)cc1NC(=O)c1ccc(O)cc1 + O=C(O)c1ccc(-c2c[nH]c3ncc(-c4ccccc4)cc23)cc1C1CCCC1 [GSK650394] (first compound 2 µM, partner dose 0.16 µM)",77.7
5,"NC(=O)c1ccc(N(C(N)=O)c2c(F)cccc2F)nc1-c1ccc(F)cc1F + Cc1cc(N2CCOCC2)cc2[nH]c(-c3c(NC[C@@H](O)c4cccc(Cl)c4)cc[nH]c3=O)nc12 [BMS536924] (first compound 0.4 µM, partner dose 0.2 µM)",95.8
6,"NC(=O)c1ccc(N(C(N)=O)c2c(F)cccc2F)nc1-c1ccc(F)cc1F + COc1cc(Nc2ncc(F)c(Nc3ccc4c(n3)NC(=O)C(C)(C)O4)n2)cc(OC)c1OC [Tamatinib] (first compound 0.4 µM, partner dose 0.4 µM)",90.6
7,"CCCCCCCCc1ccc(CCC(N)(CO)CO)cc1 [fingolimod] + CN(C)S(=O)(=O)c1ccc2c(c1)/C(=C/c1cc3c([nH]1)CCCC3)C(=O)N2 [SU6656] (first compound 2 µM, partner dose 0.4 µM)",98.8
8,"CCCCCCCCc1ccc(CCC(N)(CO)CO)cc1 [fingolimod] + OCCn1cc(-c2cnc3nnn(Cc4ccc5ncccc5c4)c3n2)cn1 [PF04217903] (first compound 2 µM, partner dose 1 µM)",102
9,"NC(=O)c1ccc(N(C(N)=O)c2c(F)cccc2F)nc1-c1ccc(F)cc1F + NC(=O)Nc1cc(-c2cccc(F)c2)sc1C(=O)N[C@H]1CCCNC1 [AZD7762] (first compound 0.4 µM, partner dose 0.02 µM)",100
10,"NC(=O)c1ccc(N(C(N)=O)c2c(F)cccc2F)nc1-c1ccc(F)cc1F + O=C(O)c1ccc(-c2c[nH]c3ncc(-c4ccccc4)cc23)cc1C1CCCC1 [GSK650394] (first compound 0.4 µM, partner dose 0.16 µM)",98.5
11,"CCCCCCCCc1ccc(CCC(N)(CO)CO)cc1 [fingolimod] + COc1cc(Nc2ncc(F)c(Nc3ccc4c(n3)NC(=O)C(C)(C)O4)n2)cc(OC)c1OC [Tamatinib] (first compound 2 µM, partner dose 0.4 µM)",83.2
12,"CC(C)(C)c1cnc(CSc2cnc(NC(=O)C3CCNCC3)s2)o1 + O=C(Nc1cccc(Cl)c1)Nc1ncc(CCNc2ncnc3ccsc23)s1 [SNS314] (first compound 0.01 µM, partner dose 0.0008 µM)",101
13,"Cc1ccc(NC(=O)c2cccc(N(C)C)c2)cc1NC(=O)c1ccc(O)cc1 + COc1cc2c(Oc3ccc4[nH]c(C)cc4c3F)ncnc2cc1OCCCN1CCCC1 [cediranib] (first compound 2 µM, partner dose 0.4 µM)",84.4
14,"NC(=O)c1ccc(N(C(N)=O)c2c(F)cccc2F)nc1-c1ccc(F)cc1F + C[C@@H]1CCN(C(=O)CC#N)C[C@@H]1N(C)c1ncnc2[nH]ccc12 [CP690550] (first compound 0.4 µM, partner dose 1 µM)",103
15,"NC(=O)c1ccc(N(C(N)=O)c2c(F)cccc2F)nc1-c1ccc(F)cc1F + CC(C)(C)c1cnc(CSc2cnc(NC(=O)C3CCNCC3)s2)o1 [SNS-032] (first compound 0.4 µM, partner dose 0.01 µM)",103
